Consider 60 compounds from PubChem BioAssay AID1508642 (National Center for Advancing Translational Sciences (NCATS), 2021).

Screen size: about 43,000 compounds; about 200 (0.47%) were called active. Inconclusive results (about 12%) are left out. Calls follow the shape of the dose curve; as a rule, active = well fitted cell-killing curve with a large enough effect; inconclusive = small, poorly fitted or top-dose-only effect, or effect the other way; inactive = flat fitted curve, though single readings scatter. The list shows a part of the results.
% is scaled to controls: 0 for no effect and ±100 for the full control effect.

A short description of this experiment: Cell viability qHTS assay in S16 Pmp22-F2sN cells. Also: nearly all actives have a fitted effect of over 65% in size. The following applies: S16 Pmp22-F2sN Schwann cells viability, CellTiter-Glo, 24 h; series mostly up to 57.5 µM; activity change, negative = cytotoxicity: at the top concentration. The procedure, abridged:
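Used to flag compounds lowering reporter output through toxicity, this quantitative HTS measures ATP-based CellTiter-Glo luminescence in S16 Pmp22-F2sN Schwann cells after 24 h compound exposure at 37C.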
Turning to `O=C(C1CC1)N1CCc2cc(Br)cc(S(=O)(=O)N3CCN(c4ccccc4)CC3)c21`, the “activity change, negative = cytotoxicity” value was inactive: 22.4%.
With `CCOc1ccc(/C=C(\C#N)C(=O)Nc2sc3c(c2C(=O)OC)C(C(=O)OC)CC3)cc1OC` (stereo not given) the figure was inactive: 1.28%.
With `Cc1c(CNCCc2ccc(S(N)(=O)=O)cc2)c(C(=O)O)c(C)n1Cc1ccc(Cl)cc1` the figure was inactive: -4.34%; with `CCCCC(=O)Nc1nnc(S(=O)(=O)N(CC)c2cc(C)cc(C)c2)s1`, inactive: 19.3%; with `CCCCOC(=O)c1ccc(Nc2nc3ccccc3c3nnc(C)n23)cc1`, inactive: 10.2%.
With `COc1ccc(S(=O)(=O)NCc2ccc3c(c2)CCN3C(=O)c2ccc(C)cc2)cc1Cl` the figure was inactive: -26.5%; with `COc1ccc(CCn2c(=O)c3cccnc3n(CC(=O)Nc3cccc(C)c3)c2=O)cc1OC`, inactive: 0.364%; with `CCOC(=O)C1CCN(C(=O)Cn2nc(C)n3c(cc4cc(C)ccc43)c2=O)CC1`, inactive: -0.969%.
On to `Cc1cc2nc(-c3ccc(Br)cc3)cc(C(F)(F)F)n2n1`, for which the “activity change, negative = cytotoxicity” value is inactive: 0.845%.
With `Cc1cc(C)cc(-n2ccnc2SCC(=O)Nc2ccc3c(c2)OCO3)c1` the figure was inactive: 2.36%; with `Cn1cc(-c2cc3n(n2)CCC(=O)N3CCCC(=O)Nc2ccc(F)cc2F)c2ccccc21`, inactive: 2.74%.
With `Cc1ccc2nc(NS(=O)(=O)c3ccc(Cl)cc3)c(Nc3ccc(C(=O)O)cc3)nc2c1` the figure was inactive: 1.3%; with `Cc1nnc2c(N3CCN(c4ccccc4)CC3)nc3ccc(C(=O)c4ccccc4)cc3n12`, inactive: 0.967%.
With `Cc1nc2c(C(=O)NCCc3ccc(Cl)cc3)c[nH]n2c(=O)c1Cc1ccccc1F` the figure was inactive: 17.7%.
Regarding `CCc1ccc(Sc2cc(C(=O)NCCCOC(C)C)c3ccccc3n2)cc1`, the “activity change, negative = cytotoxicity” value was inactive: -4.49%.
With `Cc1cc(C)cc(OCC(=O)Nc2ccc(Cl)c(-c3nc4ncccc4o3)c2)c1` the figure was inactive: 7.4%; with `CC(=O)Nc1ccc(-n2c(CCC(=O)O)ccc2-c2ccc(C)cc2)cc1`, inactive: 5.12%.
The value for `CCOC(=O)c1oc2ccc(S(=O)(=O)n3nc(-c4cc(OC)cc(OC)c4)cc3N)cc2c1C` was inactive: -19.8%.
With `N#C/C(=C\c1ccccc1)C(=O)Nc1sc2c(c1C(N)=O)CCC2` the figure was inactive: 5.06%.
For the compound `Cn1cnc(S(=O)(=O)N2CCC(C(=O)N3CCN(c4ccc(Cl)cc4)CC3)CC2)c1`, the “activity change, negative = cytotoxicity” value is inactive: 3.8%.
For `CCc1ccccc1NC(=O)C1COc2ccccc2C1` (stereo not given), the “activity change, negative = cytotoxicity” value was inactive: -27.6%.
The value for `COc1cccc(C2C(C(=O)Nc3ccccc3)=C(C)Nc3nnnn32)c1OC` (stereo not given) was inactive: 2.22%; that for `Cc1ccc(NC(=O)CSc2nc3c(oc4ccccc43)c(=O)n2Cc2ccco2)cc1` was inactive: 1.67%; that for `CCCn1c(=O)c2sccc2n2c(CCCC(=O)N3CCN(c4cccc(C)c4C)CC3)nnc12` was inactive: 1.09%.
With `Cc1c(C(=O)N(Cc2ccc(Cl)cc2)CC2CCCO2)oc2ccc(F)cc12` (stereo not given), the “activity change, negative = cytotoxicity” value is inactive: -4.07%.
With `COc1ccccc1CNC(=O)CSc1ncc2c(n1)-c1cc(Cl)ccc1N(Cc1ccccc1)S2(=O)=O` the figure was inactive: -0.764%; with `CCOc1ccc(-c2nc(SCC(=O)NCCCOC)c(-c3ccccc3)[nH]2)cc1`, inactive: -3.01%.
With `CCn1c(CN2CCOCC2)nc2cc(NC(=O)c3ccc([N+](=O)[O-])cc3)ccc21`, the “activity change, negative = cytotoxicity” value was inactive: 1.07%.
The value for `CCc1ccc(NC(=O)C2=CC(c3ccc4c(c3)OCO4)=NS(=O)(=O)N2C)cc1` was inactive: 1.41%.
With `Cc1cccc(-n2c(C)nc3cc(C(=O)NC4CCCCCC4)ccc32)c1` the figure was inactive: -5.66%; with `O=C(Cc1ccccc1F)N1CCC(c2nc3c(nnn3Cc3ccc(F)cc3)c(=O)[nH]2)CC1`, inactive: 19.9%.
With `O=C(CS(=O)(=O)c1cccc2nsnc12)Nc1cc(F)ccc1F`, the “activity change, negative = cytotoxicity” value is inactive: 10.1%.
The value for `CSc1ccc(CC2C(=O)Nc3ccccc32)cc1` (stereo not given) was inactive: -6.88%.
With `CCOC(=O)C1CCN(c2c(C(=O)c3ccc(C)cc3)cnc3ccc(F)cc23)CC1` the figure was inactive: 15.1%; with `O=c1c2cc3c(nc2ncn1Cc1ccc(Cl)cc1)CCCC3`, inactive: -6.31%; with `COc1ccc(NC(=O)CN2C(=O)c3ccccc3Sc3ccc(C(=O)N4CCOCC4)cc32)c(OC)c1`, inactive: 0.823%.
The value for `CC1CCC2(CC1)N=C(c1ccccc1)C(=O)N2CC(=O)Nc1ccc(F)c(Cl)c1` (stereo not given) was inactive: -27.4%; that for `CCOC(=O)c1cccc(NS(=O)(=O)c2cc3[nH]c(=O)c(=O)[nH]c3cc2C)c1` was inactive: 4.42%; that for `Cc1nc2ncnn2c(C)c1CCC(=O)N1CCN(c2cccc(Cl)c2)CC1` was inactive: 7.84%.
As to `CCc1ccc(NC(=O)c2nnn(Cc3cccc(C(F)(F)F)c3)c2N)cc1`, the “activity change, negative = cytotoxicity” value is inactive: 5.88%.
With `COc1cccc(CNC(=O)c2ccc3c(c2)nc2n3CCCCC2)c1OC` the figure was inactive: 3.43%; with `COc1cccc(CNC(=O)COCc2cc(-c3ccc4c(c3)OCO4)on2)c1`, inactive: -21%.
The value for `COc1cc(C(=O)OCc2cc(=O)n3nc(C(C)C)sc3n2)cc(OC)c1OC` was inactive: -4.05%; that for `COc1cc(NC(=O)c2cccc(F)c2)ccc1NC(=O)c1cc2ccccc2o1` was inactive: -0.393%; that for `CCOc1ccccc1NC(=O)CN1CCCN(Cc2cccc(Cl)c2)S1(=O)=O` was inactive: -11.3%.
Turning to `CN(C)S(=O)(=O)c1ccc2c(c1)N(CC(=O)N1CCN(c3ccccc3F)CC1)CCS2`, the “activity change, negative = cytotoxicity” value is inactive: 4.9%.
As to `CCc1cccc(C)c1NC(=O)CN1C(=O)C2(SCC(=O)N2c2cc(C)cc(C)c2)c2ccccc21` (stereo not given), the “activity change, negative = cytotoxicity” value was inactive: 1.3%.
`COc1cccc(C(=O)Nc2ccccc2-c2nc3ccccc3s2)c1`: the “activity change, negative = cytotoxicity” value is inactive: 0.0191%.
With `Cc1cccc(CNC(=O)CN2C(=O)CCCc3ccccc32)c1` the figure was inactive: -3.34%.
With `Cc1ccc(-c2nc(CS(=O)(=O)CC(=O)NCc3ccccc3Cl)c(C)o2)cc1` the figure was inactive: -11.7%.
With `O=C(Cn1c(=O)n(Cc2ccc(C(=O)NCc3ccccc3Cl)cc2)c(=O)c2ccccc21)Nc1ccc(F)c(Cl)c1` the figure was inactive: 5.16%.
Consider `COc1ccc(N2CC(NC(=O)COc3ccc4ccccc4c3)CC2=O)cc1` (stereo not given), for which the “activity change, negative = cytotoxicity” value is inactive: 4.71%.
With `COc1cc(OC)cc(C(=O)Nc2cccc(-c3cn4cccnc4n3)c2)c1` the figure was inactive: -23.4%.
The value for `Cc1cccc(NC(=O)c2sc(-n3nc(C)c(CCC(C)C)c3C)nc2C)c1C` was inactive: -0.0426%; that for `O=S(=O)(c1ccc2[nH]c3c(c2c1)CCCCC3)N1CCN(c2cccc(Cl)c2)CC1` was inactive: -13.2%; that for `CC1=C(C(=O)Nc2cccc(C(F)(F)F)c2)C2(CCCCC2)OC1=O` was inactive: -0.911%.
The value for `COc1ccc(-c2nc3ccc(C)cn3c2Nc2ccc3c(c2)OCO3)cc1` was inactive: 9.5%; that for `O=C(NC1CCCC1)c1ccc2c(=O)n(Cc3ccccc3)c(SCc3ccccc3)nc2c1` was inactive: -3.54%.
`Cc1ccc(-n2nc(C(=O)Nc3ccc(C)c(F)c3)c(=O)n(C)c2=O)cc1`: the “activity change, negative = cytotoxicity” value is inactive: -7.61%.
The value for `Cc1ccc(CNC(=O)CCCCn2c(=O)c3ccccc3n(Cc3ccc(C)cc3)c2=O)cc1` was inactive: 10.1%.
